From PubChem BioAssay AID463173 (ICCB-Longwood Screening Facility, Harvard Medical School, 2010)
The campaign covered roughly 52,000 compounds. About 1,700 (3.3%) were called active. Rule as the data show it: active = survival mostly below about 52% (no sharp cut-off); inactive = mostly above about 56%. This is one part of the list.

Tested on: Wild type
Experiment: S. aureus survival, RN4220 and DeltatarO strains – OD600, teichoic acid synthesis inhibitors, primary screen (AID 463173)
Details: S. aureus RN4220 wild type/DeltatarO growth, OD600, 18 h, hits give low values, screened at 18.75 µg/mL (by protocol)

Row | SMILES | survival
1 | COC(=O)c1csc(N)n1 | inactive: 112%
2 | CCN(CC)CCOC(=O)c1ccc(NC(=O)CCn2c(=O)oc3ccccc32)cc1 | inactive: 69%
3 | CCN(CC)C(=O)Cn1cc(C(=O)C(C)C)c2ccccc21 | inactive: 115%
4 | N#Cc1ccccc1NC(=O)C(=O)NCC(c1cccnc1)N1CCc2ccccc2C1 (stereo not given) | inactive: 82%
5 | CCC1=NN(C(=O)C(C)C)C(O)(C(F)(F)F)C1 (stereo not given) | inactive: 105%
6 | COC(=O)C1C(=O)C2=C(CC1C)Nc1ccccc1NC2c1ccc(C)cc1 (stereo not given) | inactive: 111%
7 | CCCCN(C)c1ncnc2c1cnn2-c1cccc(Cl)c1 | inactive: 95%
8 | O=C(Nc1cccc(F)c1)N1C2CCC1CC(O)(c1cccnc1)C2 (stereo not given) | inactive: 109%
9 | COc1ccc(OC)c(CCNC(=O)C(C)n2nc(C)c3c(C)n(-c4ccc(C)cc4)nc3c2=O)c1 (stereo not given) | inactive: 88%
10 | CCOc1ccccc1NC(=O)C1CCCN(S(=O)(=O)c2ccc3c(c2)CCCN3C(C)=O)C1 (stereo not given) | inactive: 66%
11 | CCC(=O)N1CCc2cc(S(=O)(=O)NCCC(=O)Nc3cccc(C)c3C)ccc21 | inactive: 117%
12 | Cc1cc(SCC(=O)NCc2ccccc2)nc(=O)[nH]1 | inactive: 70%
13 | COc1cccc(CNc2ccc3c(c2)ncn3C)c1OC | inactive: 121%
14 | CN(C)C(=O)Cn1c2[n+](c3ccccc31)CC(O)CS2 (stereo not given) | inactive: 103%
15 | CCc1ccc(S(=O)(=O)c2nnn3c2nc(Nc2cccc(C)c2C)c2sccc23)cc1 | inactive: 71%
16 | O=C(NCc1ccccc1Br)c1ccc(-n2cnc3cccnc32)cc1 | inactive: 152%
17 | COc1ccc(N(CC(=O)Nc2ccc(Cl)cc2C)S(=O)(=O)c2ccccc2)c(OC)c1 | inactive: 113%
18 | COc1cc(-c2nnc(SCC(=O)N3CCCc4ccccc43)o2)cc(OC)c1OC | inactive: 73%
19 | CCCN(C(=O)CCn1cnc2onc(-c3ccc(F)cc3)c2c1=O)c1ccccc1C | inactive: 72%
20 | Cc1cc(C)cc(C(=O)Nc2c3c(nn2-c2ccccc2C)CS(=O)(=O)C3)c1 | inactive: 127%
21 | CCOC(=O)c1c(-c2ccccc2)csc1NC(=O)c1cc(-c2cccc(OC)c2)on1 | inactive: 72%
22 | Cc1ccc(Cl)cc1N1CCN(C(=O)Cn2nc(C)n3c(cc4sccc43)c2=O)CC1 | inactive: 122%
23 | O=C(Cn1nc2c(cc1=O)CCCC2)NCc1ccccc1Cl | inactive: 148%

Row | SMILES | survival
24 | Cc1ccc(C(=O)Nc2nnc(SCc3cc(=O)n4ccc(C)cc4n3)s2)cc1 | inactive: 129%
25 | CCCNS(=O)(=O)c1ccc(OCC(=O)NCc2ccccn2)cc1 | inactive: 122%
26 | CCC(=O)N1c2nc(C(C)C)nn2C2(CCCCC2)[C@@H]2CCCC[C@@H]21 | inactive: 103%
27 | Cc1cc(C)cc(NC(=O)Cn2nnc(C(=O)NCc3ccco3)c2N)c1 | inactive: 87%
28 | O=C(CN1C(=O)COc2ccc(S(=O)(=O)N3CCCCCC3)cc21)N1CCN(c2ccccc2)CC1 | inactive: 86%
29 | COc1ccc(Cl)cc1NC(=O)C(C)N1Cc2ccccc2C1=O (stereo not given) | inactive: 85%
30 | COCCNC(=O)Cn1c(=O)n(-c2ccc(C)c(C)c2)c(=O)c2c3c(sc21)CCCCC3 | inactive: 84%
31 | CCOC(=O)c1cccc(NC(=O)C2CCN(c3nnc(C)c4c(C)n(-c5ccccc5)nc34)CC2)c1 | inactive: 77%
32 | CCOc1cc(CNC(=O)C(NS(=O)(=O)c2cccs2)C(C)C)cc(OCC)c1OCC (stereo not given) | inactive: 65%
33 | O=C(Cn1c(SCc2cccc(F)c2)nc2ccncc21)Nc1ccc(Cl)cc1F | inactive: 50%
34 | COc1ccc(NCc2cccn2-c2nnc(N3CCOCC3)s2)c(OC)c1 | inactive: 70%
35 | COc1ccc(N2CCN(S(=O)(=O)CCNC(=O)Cc3ccc(-c4ccccc4)cc3)CC2)cc1 | inactive: 115%
36 | COc1ccc(C(=O)Nc2ccc3nc(N4CCCCC4)cc(C)c3c2)c(OC)c1 | inactive: 75%
37 | Cc1cccc(C)c1NC(=O)CSc1nnc(C)n1Cc1ccccc1 | inactive: 104%
38 | Cc1cn2c(=O)cc(COc3cccc(NC(=O)c4cccc(F)c4)c3)nc2s1 | inactive: 93%
39 | CCOC(=O)c1c(NC(C)=O)c2c3c(sc2n1Cc1cccc(Cl)c1)CCCC3 | inactive: 101%
40 | Cc1ccc(C(CC(=O)Nc2ccc(C)cc2C)N2Cc3ccccc3C2=O)cc1 (stereo not given) | inactive: 110%
41 | CCOc1ccccc1CNC(=O)c1cccc(NC(=O)c2nsc3ccccc23)c1 | inactive: 63%
42 | Cc1cc(C)c(S(=O)(=O)Nc2ccc3oc4c(c3c2)C(=O)CC(C)(C)C4)cc1C | inactive: 86%
43 | COc1ccc(-c2cnc(C)o2)cc1S(=O)(=O)Nc1ccc(F)cc1F | inactive: 121%
44 | COc1cc(OC)c(NC(=O)c2cn(C3CCCC3)c(=O)c3c2c2ccccc2n3C)cc1Cl | inactive: 80%
45 | O=C(c1ccc(Br)cc1)N(Cc1cccs1)c1ccc(F)cc1 | inactive: 99%
46 | CN1CCN(C(=O)Cn2ncc3c4ccccc4n(Cc4ccc(F)cc4)c3c2=O)CC1 | inactive: 98%

Row | SMILES | survival
47 | COc1cc2c(cc1OC)C(COc1ccc(F)cc1)N(C(=O)c1cccc(F)c1)CC2 (stereo not given) | inactive: 60%
48 | CN(C)CCCNC(=O)C(=O)NCC(c1ccc2c(c1)OCO2)N1CCOCC1 (stereo not given) | inactive: 124%
49 | Cc1nc2nc(SCC(=O)Nc3ccccc3Cl)nn2c(C)c1Cc1ccccc1 | active: -3%
50 | CCOCCn1ccc2c(OCC(=O)Nc3cccc([N+](=O)[O-])c3)cccc2c1=O | inactive: 128%
51 | CCCOc1ccc(C2C(=O)N(C3CCCCCC3)CC(=O)N2CCC2=CCCCC2)cc1OC (stereo not given) | inactive: 123%
52 | Cc1cccn2c(=O)c(/C=C(\C#N)c3nc4ccccc4s3)c(Oc3ccc(F)cc3)nc12 | inactive: 90%
53 | Cc1cc(N(CCO)Cc2ccccc2)n2nc(-c3ccc(C(C)(C)C)cc3)nc2n1 | inactive: 85%
54 | CC(C)Cn1c(N2CCN(C(=O)c3sc4ccccc4c3Cl)CC2)nc2ccccc21 | inactive: 115%
55 | COc1cccc(C(=O)Nc2ccccc2OCc2cc(=O)n3ccccc3n2)c1 | inactive: 99%
56 | Cc1noc(/C=C/c2cccs2)c1S(=O)(=O)N1CCC(C(=O)NCc2ccc(Cl)cc2)CC1 | inactive: 104%
57 | COc1ccccc1CN1CCNC(=O)C1=O | inactive: 77%
58 | COc1ccc(N(Cc2nnc3n2CCCCC3)C(=O)Nc2cccc(C)c2)cc1Cl | inactive: 71%
59 | CCOc1ccc(/C=C(\C(=O)N2CCCC2)n2ccccc2=O)cc1 | inactive: 113%
60 | Cn1c(=O)c2cc(C(=O)NC3CCCCCC3)sc2c2ccccc21 | inactive: 89%
61 | COc1ccc(-c2coc3c2c(C)cc2oc(=O)c(CC(=O)O)c(C)c23)cc1 | inactive: 49%
62 | COc1ccc(NC(=O)C(CC(C)C)NC(=O)C2CCCCC2)cc1 (stereo not given) | inactive: 58%
63 | CCOc1ccc(CN2CCc3nc(N4CCN(c5ccccn5)CC4)ncc3C2)cc1OC | inactive: 129%
64 | O=C(Cn1ncc2c3ccccc3n(Cc3ccccc3)c2c1=O)NC1CCCCCC1 | inactive: 120%
65 | Cc1ccc(C(=O)c2cn(Cc3ccccc3C)c3nc(C)ccc3c2=O)cc1 | inactive: 61%
66 | Cc1ccccc1-c1cc2nccc(-c3cc(Cl)ccc3O)n2n1 | inactive: 68%
67 | COc1ccc(-c2cn3c(n2)sc2cc(C(=O)NCc4cccc(F)c4)ccc23)cc1 | inactive: 99%
68 | Cc1ccc(NC(=O)Cn2c(=O)n(Cc3ccc4c(c3)OCO4)c(=O)c3ccccc32)cc1 | inactive: 87%
69 | CCCc1noc(-c2ccc(NCc3ccc(C)cc3)c([N+](=O)[O-])c2)n1 | inactive: 87%

Row | SMILES | survival
70 | Cc1oc2c(cc(NS(=O)(=O)c3ccc(Cl)cc3)c3ccccc32)c1C(=O)OCc1ccccc1 | inactive: 65%
71 | CCCc1cnc2c(c1SCc1cccc(F)c1)c(=O)n(C)c(=O)n2C | inactive: 67%
72 | CN(Cc1ccccc1)C1CCNCC1 | inactive: 113%
73 | Cc1nc(C)c(CCNS(=O)(=O)c2ccc(F)cc2)s1 | inactive: 131%
74 | Cc1ccc(NC(=O)CN2C(=O)COc3ccc(S(=O)(=O)NC4CCCC4)cc32)c(Cl)c1 | inactive: 83%
75 | COc1ccc(CNC(=O)c2cnc3sc(N4CCCC4)nn3c2=O)c(OC)c1 | inactive: 84%
76 | CCc1ccc(Nc2nnc(-n3nc(C)cc3C)c3ccccc23)cc1 | inactive: 130%
77 | CCCCNC(=O)CSc1nc2cc3c(cc2c(=O)n1CCCCCC(=O)NCc1ccc(OC)cc1)OCO3 | inactive: 63%
78 | COc1ccc(CNC(=O)Cc2csc3nc(-c4ccc(F)cc4)cn23)cc1 | inactive: 68%
79 | Cc1ccccc1C(=O)NCCc1sc(-c2ccc(Cl)cc2)nc1C | inactive: 143%
80 | NC(=O)Nc1nc2cc(Cl)cc(Cl)c2[nH]c1=O | inactive: 113%
81 | Cc1ccccc1NC(=O)CCN1C(=O)c2ccccc2Sc2ncccc21 | inactive: 90%
82 | COc1cccc(NC(=O)CCc2c(C)nc3ncnn3c2C)c1 | inactive: 73%
83 | COc1ccc(C2CC(=O)N(CC(=O)Nc3ccc(C)c(Cl)c3)c3ccccc3S2)cc1OC (stereo not given) | inactive: 83%
84 | CCOc1ccc(NC(=O)C(=O)NCC(c2cccnc2)N2CCc3ccccc32)cc1 (stereo not given) | inactive: 50%
85 | COc1ccc(-c2nc(SCC(=O)NC3CCCC3)c(-c3ccc(C)cc3)[nH]2)cc1OC | inactive: 77%
86 | Cc1c(C(=O)N2CCOCC2)sc(NC(=O)c2ccc3c(c2)OCO3)c1C#N | inactive: 111%
87 | COc1ccc(N(Cc2cccs2)C(=O)Nc2cccc(Cl)c2)cc1 | inactive: 74%
88 | CCOC(=O)C1CCCN(S(=O)(=O)c2ccc3c(c2)oc(=O)n3C)C1 (stereo not given) | inactive: 88%
89 | Cc1cn2c(=O)cc(COc3ccc(NC(=O)COc4ccccc4)cc3)nc2s1 | inactive: 140%
90 | COc1cc(NC(=O)CN(c2cc(C)cc(C)c2)S(=O)(=O)c2c(C)[nH]c(=O)[nH]c2=O)cc(OC)c1 | inactive: 83%
